In the supplement of paper PMC3334620:
Whole data set: some 33,000 sequences, median “E-score (-0.5 to 0.5)” near -0.04, cut for the highest 2% near 0.36. This is one part of the list.

These sequences were tested against T1, Hmlalpha2 (UniProt P0CY09) (assay: PBM E-score (8-mer binding enrichment) (E-score (-0.5 to 0.5)); higher = stronger / more preferred TF binding; most listed sequences are background and not binding sites). Details: protein concentration: 200 nM; construct: GST-full length.
T1 sequence: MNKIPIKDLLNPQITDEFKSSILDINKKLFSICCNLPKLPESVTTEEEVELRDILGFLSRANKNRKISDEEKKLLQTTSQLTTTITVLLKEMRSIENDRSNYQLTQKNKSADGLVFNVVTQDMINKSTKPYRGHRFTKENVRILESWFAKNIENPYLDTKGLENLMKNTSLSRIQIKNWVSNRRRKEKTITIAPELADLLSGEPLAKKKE
How it was run: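 Detection of bound protein used fluorescent anti-GST, with scans normalised by masliner. The proteins were GST-tagged yeast transcription factors applied at about 100-200 nM to universal all-10-mer Agilent arrays made double-stranded by primer extension. Each ungapped eight-base word, pooled with its reverse complement, was scored with an E-score from the Universal PBM Analysis Suite.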

Sequence	PBM E-score
ATGCCTGC	-0.175
CTACGTAA	0.318
ATGGAGGC	-0.263
CATACAGA	0.0154
ACCAAGTG	-0.0583
AGGGCGGA	-0.28
AGGGACTC	-0.36
CGTGTCCA	0.163
GATTAAAC	0.155
ATGTCGTA	0.252
AGAACCTG	-0.154
TAACGATA	0.16
CCTGTCCC	-0.271
ATATTTCC	-0.199
AATGGTGT	0.142
TATGCCGA	0.0144
TGATCGAA	-0.00485
GTCGGCGA	-0.0767
CAGCTCAG	-0.175
ATTCGAAG	-0.0614
TAGAGCAA	-0.0684
ATGGCATG	0.215
AGCTAAAA	-0.0141
ACAGCCTC	-0.116
CGCTCCAC	-0.283

Sequence	PBM E-score
CATTTTAG	0.135
TCTTTACA	0.445
GGTTCGTA	0.00204
CCCTTCAC	-0.195
CTTTTGTC	-0.0784
TATCACAA	0.082
CTGCCGTA	-0.193
GCACCATA	-0.129
GACCCTAC	-0.185
GGTCGAAA	-0.166
AAGGCTGT	-0.118
AGGGCCTC	-0.259
CGCGGTAA	0.178
ATAGCGAT	0.0316
GGTACTCA	-0.0579
CTACGGAA	-0.0461
AACTTGAC	0.214
GCGCCGAC	-0.0823
GCATTAGA	0.0569
CCCTGCAC	-0.115
ATAAATCA	0.153
AGTGGAGC	-0.0527
TATGCCAA	0.0267
CCGGTGAA	-0.0442
AGGTGGCA	-0.176

Sequence	PBM E-score
CGGAGCTA	-0.0643
AGGGAGTC	-0.262
AAGGTCGT	-0.0856
AAAGCCTC	-0.206
GGATACCA	-0.134
GAGAGTAC	0.035
GATACCGA	-0.166
TACCTCGA	-0.0242
CAGTAACG	0.0654
AACACAGT	0.304
TCCCATAA	-0.0459
CGTTCAAG	-0.00861
GGGCTGGA	-0.295
ACAGTGGC	-0.0921
GCAGAGGA	-0.141
CATCTACG	0.161
AAGAGATC	-0.247
AAACTCGC	-0.0609
AGCCCCAC	-0.271
CCACTTAA	0.0174
CCGCTTCC	-0.0908
ATTTACCA	0.21
ACAGTTGC	0.0403
AGGTGCTC	-0.322
GGGGAGCA	-0.23

Sequence	PBM E-score
CTGCAAAG	-0.0914
AACCGGAG	-0.0784
GCCGCCAC	-0.303
CGGTAATC	-0.204
CTATCCTA	-0.147
CTCCACAC	-0.099
ATGGTTAG	0.138
AGCATCCA	-0.249
GCAAATCC	0.0405
CAGCTAAG	-0.114
ACAACGTG	0.306
CTGAAGTA	-0.0277
GGCTAGAC	-0.193
CGGCAACG	-0.0873
CTGCTTAA	0.00947
CCAGTTAG	-0.127
CTGCCCAG	-0.229
CCACCGCC	-0.217
GAGACTCA	-0.206
ATTTGGCA	0.00676
CCATTGCA	0.0939
ACTTACTG	0.00354
CCGTAGCC	-0.307
AGTTCTAC	0.161
ACCGACCG	-0.151

Sequence	PBM E-score
CTCGAACA	0.112
CAATTGAC	0.0543
ACTCATGG	-0.156
AGGGGCTG	-0.249
ATTTCTTC	-0.0697
AGATGAAG	-0.156
GGCAACCA	-0.113
GCCTGTTA	0.139
ACCGGGAA	-0.0305
GTGACACA	0.142
CTATTCAA	0.0647
AGGGGTAC	-0.121
GGGAGTAA	0.0108
ACTCATTG	-0.155
AGCTTGGC	-0.0948
AGCACGCG	0.216
CAGGCCAC	-0.181
AGTAGATG	0.136
CGGGCCCG	-0.122
CCGCTAAG	-0.0291
AGCTCCGA	-0.0303
CAGACGCG	-0.0728
GCCTTTGA	-0.126
GTAGTTAA	0.306
ACTTAGGA	-0.0292

Sequence	PBM E-score
AGAGCTGG	-0.168
GGGGCCAA	-0.283
GACTGTAA	0.171
GGAGCCCA	-0.345
TACGGCTA	-0.0923
AGCCTTCC	-0.271
ATCGGTTC	-0.00097
CAGATGAG	-0.0215
CTCATGTC	0.295
GCAGGTGA	-0.126
AACGGCTT	-0.239
AGCCATGG	-0.101
TAAACCGA	0.0421
AGCCCTGC	-0.139
GTTCGTCA	-0.108
AGGGCCAT	-0.193
CGTGGGGA	-0.244
CCGATCAC	0.0381
CTAGGGCC	-0.182
GCTAAGAC	-0.143
CCGTTGGC	-0.236
ATAAACGC	0.185
CAAGCTCG	-0.0355
CTGTATCC	-0.105
ATACCCTA	-0.0708

Sequence	PBM E-score
CGTTGCAA	0.0442
AATCTCTA	0.0749
CACCGCCG	-0.288
CAATATGA	0.0361
AGTAGACC	-0.149
CACCCCTA	-0.306
CTGCCTGC	-0.252
CCGGAGTC	-0.0726
GCTATAGA	-0.15
CGGACCTC	-0.309
GATGCGGC	-0.204
AGTTTAAC	0.197
CGCTTGGC	-0.0931
CGAGACTA	0.0402
GCAGGGGA	-0.311
CGGAACGC	-0.025
AGCCTGGC	-0.207
GTAGCCCA	-0.0543
TCGATGAA	0.102
ATCATCAA	0.00119
ATTCTCTC	-0.127
AAGTGAGA	-0.0616
CGCTCGTA	-0.0486
CTACAATA	0.129
TAACTGCA	0.144

Sequence	PBM E-score
GCTACAAC	-0.0124
TAGCGGGA	-0.231
AGTCGCTG	-0.0137
TAAGTGGA	0.0716
ATTCAACC	-0.0524
ACAGTAAG	0.064
CCGGAAGC	-0.244
ATCTCCAA	0.00965
CGGTCTCA	-0.175
GTCCCTCA	-0.269
AGTTAAAT	0.117
GTCAAGCA	-0.164
GGGCATGA	-0.214
CTAATGGA	-0.263
ACGAGGCT	0.134
CTATATTC	-0.164
CCCCGATC	-0.348
TAGGGGGA	-0.271
TTTCAAAA	0.17
AACTGGTA	-0.144
TCAGCAGA	-0.128
GTTCCGAA	-0.0934
AGTACACT	0.074
AACGAGGT	0.0369
CCTCCGGA	-0.255

Sequence	PBM E-score
GTGTTTTA	0.355
ATTAACCA	0.0177
AACACCAG	0.0881
CCGAGCAG	-0.118
AGGGGGAC	-0.355
ACCGCTTC	-0.219
CCAGGTGA	-0.00929
ATGGTATG	0.136
GTATCTTA	0.186
CCAAATAA	0.126
ACATGACA	0.412
AAATCAAG	-0.0515
ACCTAACC	-0.0215
CCAATCTC	0.00324
TCGGCAGA	-0.0187
ACCCAACC	-0.136
AAGAACTT	0.144
AGATGGAG	-0.0217
CTTGATGC	-0.07
